# Hit rate of the full screen: of about 310,000 compounds, about 18,000 (5.8%) were called active. Inconclusive results, whose numbers are uncertain, are shown with a selection of clear calls. Calls follow the shape of the dose curve; as a rule, active = well fitted inhibition curve with a large enough effect; inconclusive = small, poorly fitted or top-dose-only effect, or another doubt; inactive = no such curve, though single readings can be large or run the other way. No potency is given beside an inconclusive call; the fits are too rough.
# Assay: Primary qHTS for delayed death inhibitors of the malarial parasite plastid, 48 hour incubation
# Conditions: P. falciparum luciferase growth in erythrocytes; series mostly up to 28.7 µM; activity change, negative = inhibition: at the top concentration
# How it was run: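 Erythrocytes infected with P. falciparum carrying an integrated firefly luciferase reporter (2% hematocrit, 0.1% parasitemia final) were exposed to compounds in RPMI 1640 with 0.5% Albumax at 37 C, 5% CO2. Growth inhibition was scored as reduced luminescence.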
# % is scaled to controls: 0 for no effect and ±100 for the full control effect; potency is read from the fitted curve at half-maximal effect; tags tell the direction and shape of the fitted curve.
SMILES,"activity change, negative = inhibition",Potency
Cc1c(C(=O)N2CCCCC2)nnn1-c1nonc1N,inactive: -0.833%,–
Cc1ccccc1N=CC=C1OC(C)(C)C(C)(C)O1,–,active: 8.28 µM
CCCC(=O)C1=C(O)C(C(=O)OC)C(C)(C)CC1=NC(C)(C)C (stereo not given),–,"inconclusive [inhibitor, partial curve, poor fit]"
COc1cc(S(=O)(=O)N2CCCCC2)ccc1NC(=O)/C=C/c1ccccc1,–,"inconclusive [inhibitor, single point]"
CCNC(=O)NC(=O)CSc1ccc(S(=O)(=O)N2CCCCC2)cn1,–,"inconclusive [inhibitor, partial curve, poor fit]"
O=C(NC1CCCC1)C(c1ccncc1)N(C(=O)c1ccco1)c1ccc(F)c(Cl)c1 (stereo not given),–,"inconclusive [inhibitor, partial curve]"
COc1cccc(CNC(=O)CN(C)S(=O)(=O)c2ccc3c(c2)c(=O)n(C)c(=O)n3C)c1,–,"inconclusive [inhibitor, full curve, poor fit]"
CSC1=NC2(CCCCC2)CC12C=CC(=O)C=C2,–,"inconclusive [inhibitor, single point]"
N/C(=N\c1nc(CSc2nc3ccccc3s2)cc(=O)[nH]1)Nc1ccc(F)cc1,–,"inconclusive [inhibitor, single point]"
FC(F)(F)c1nc2ccccc2nc1N/N=C/c1c(Cl)cccc1Cl,–,active: 9.28 µM
CC(=O)Nc1ccc(S(=O)(=O)N(C)CC(=O)NC2CCCC(C)C2C)cc1 (stereo not given),–,"inconclusive [inhibitor, partial curve]"
O=C(NC12CC3CC(CC(C3)C1)C2)c1ccc(-c2ccc(Cl)cc2)o1,inactive: 44.5%,–
COc1ccc2cc(/C=N/NC(=O)c3c(Cl)cnn3C)c(Cl)nc2c1,inactive: -4.47%,–
COCCNc1nc(SCc2ccccc2)nc2sc3c(c12)CCC3,–,"inconclusive [inhibitor, single point]"
Oc1c(Br)cc(/C=N/n2c(-c3ccccc3)n[nH]c2=S)cc1Br,–,"inconclusive [inhibitor, full curve, poor fit]"
CC(=O)c1ccc(N2CCN(C(=O)c3ccc(C(=O)c4ccccc4)cc3)CC2)cc1,inactive: -1.86%,–
CC(CCc1ccc(O)cc1)NC1C2CC3CC(C2)CC1C3 (stereo not given),–,active: 13.1 µM
O=C(O)c1ccc2nc(-c3ccco3)c(-c3ccco3)nc2c1,inactive: 20.3%,–
CCCn1c(N2CCN(C(=O)/C=C/C(=O)O)CC2)nc2ccccc21,–,"inconclusive [inhibitor, single point]"
CCn1c(SCC(=O)N2CCOCC2)nc2c([nH]c3ccccc32)c1=O,–,"inconclusive [inhibitor, partial curve]"
O=C(Cn1nnc(-c2cccs2)n1)OC1CCCCC1,inactive: -0.0415%,–
CC(C)N(CC#CCC(O)(c1ccccc1)C1CCCC1)CCO (stereo not given),inactive: -14.2%,–
COc1ccc(C)cc1NC(=O)C(OC(=O)C1CC1)c1ccccc1 (stereo not given),inactive: 24.9%,–
Cc1ccc(S(=O)(=O)NC(CCC(N)=O)C(=O)NCc2ccc3c(c2)OCO3)c(C)c1 (stereo not given),inactive: 42.1%,–

SMILES,"activity change, negative = inhibition",Potency
CC(C)Cn1c(-c2cc(Br)ccc2F)nc2c1c(=O)[nH]c(=O)n2CC(C)C,–,"inconclusive [inhibitor, partial curve, poor fit]"
CCc1ccc(CN2CCSCC2)cc1,–,"inconclusive [inhibitor, single point]"
CCc1ccc(C2=NN(CCC(=O)NC3CC3)C(=O)CC2)cc1,–,"inconclusive [inhibitor, single point]"
O=CN1CCN(C2CC(=O)N(c3ccc(Br)cc3)C2=O)CC1 (stereo not given),inactive: 7.48%,–
COc1ccc(-c2cc(C(F)F)n3ncc(C(=O)Nc4c(C)n(C)n(-c5ccccc5)c4=O)c3n2)cc1,–,"inconclusive [inhibitor, partial curve, poor fit]"
COc1ccc([C@H]2CC(=O)C=C(c3ccc(SC)cc3)C2)cc1OC,–,"inconclusive [inhibitor, single point]"
CC/C=C/C(=O)N1CC2(CC(c3cccc(NC(=O)CC(c4ccccc4)c4ccccc4)c3)=NO2)C[C@@H]1C(N)=O (stereo not given in full),–,"inconclusive [inhibitor, single point]"
CCCOc1ccc(NC(=O)CC2C(=O)N(Cc3ccccc3)C(=S)N2Cc2cccs2)cc1 (stereo not given),–,"inconclusive [inhibitor, single point]"
CN1CC(=O)NC1=NC(=O)c1ccc(Cl)c(S(=O)(=O)N2CCCCCC2)c1,–,"inconclusive [inhibitor, full curve, poor fit]"
CCOC(=O)c1c(NC(=O)C2CCN(S(=O)(=O)c3ccc(Cl)cc3)CC2)sc2c1CCCC2,–,active: 8.28 µM
CCOC(=O)c1n[nH]n(-c2cc(Cl)cc(Cl)c2)c1=O,–,"inconclusive [inhibitor, single point]"
CCS(=O)(=O)c1ccc2oc(SCC(=O)NCCc3ccc(F)cc3)nc2c1,inactive: -19.5%,–
COc1ccc(/C=C/C(=O)c2ccc(O)cc2)cc1CN1CCOCC1,–,"inconclusive [inhibitor, single point]"
C[C@@H](NC(=O)c1nc[nH]c1C(=O)OCc1ccccc1)c1ccccc1,–,"inconclusive [inhibitor, partial curve, poor fit]"
COc1ccc(-c2nnn(CC(=O)N(CC3CCCO3)C(C(=O)NC(C)(C)C)c3ccco3)n2)cc1OC (stereo not given),–,"inconclusive [inhibitor, partial curve]"
CC(=O)c1cc2c(cc1NC(=O)Cn1nc(-c3ccc(F)cc3)ccc1=O)OCO2,–,"inconclusive [inhibitor, single point]"
COc1ccc(C(=O)Nc2cc(S(=O)(=O)N3CCCCC3)ccc2OC)cc1,inactive: 11.3%,–
Cc1cccc2cc3c(N)c(C(=O)N4CCCc5ccccc54)sc3nc12,–,"inconclusive [inhibitor, single point]"
CCCCN(C)C(=O)Cn1cnc2sc(C)c(S(=O)(=O)N3CCN(c4ccccc4OC)CC3)c2c1=O,–,active: 11.7 µM
O=C(COC(=O)c1cc(Br)c(Br)s1)NCCC1=CCCCC1,inactive: 10.3%,–
COC(=O)CSc1nc(N)c2c3c(sc2n1)C(c1ccccc1)SC(c1ccccc1)C3 (stereo not given),–,"inconclusive [inhibitor, partial curve, poor fit]"
COc1ccc(Cl)cc1N1C(=N)SCC1=O,inactive: 27.8%,–
COc1ccc(Cl)cc1S(=O)(=O)N1CCC(C(=O)NCCc2ccccc2)CC1,inactive: -8.4%,–
CC(=O)C1=C(C)OC(N)=C(C#N)C1c1cc2cc(C)c(C)cc2nc1Cl (stereo not given),inactive: 23.3%,–

SMILES,"activity change, negative = inhibition",Potency
Cc1cccc(OCC(O)CN2CCN(c3ccccn3)CC2)c1C (stereo not given),inactive: 34.8%,–
CC1=C(C(=O)OCc2ccccc2)C(/C=C/c2ccccc2)NC(=S)N1 (stereo not given),–,"inconclusive [inhibitor, single point]"
C/C(=N\NC(=O)C1CCCN(S(=O)(=O)c2ccccc2)C1)c1ccncc1 (stereo not given),inactive: -5.3%,–
COc1ccc(NC(=O)C2c3cc(OC)c(OC)cc3C(=O)N(C)C2c2cccnc2)cc1OC (stereo not given),–,"inconclusive [inhibitor, single point]"
C=C(C)CSc1nc2c(c(=O)[nH]c(=O)n2C)n1Cc1ccccc1,–,"inconclusive [inhibitor, single point]"
Cc1csc(CN(C)C(=O)CC2C(=O)NCCN2Cc2ccc(Cl)c(F)c2)n1 (stereo not given),inactive: -10.5%,–
Cc1ccc(-c2nc3ccccn3c2NC(=O)c2ccco2)cc1,inactive: -8.15%,–
COc1ccc(C2CC(c3ccccc3)=NN2C(=O)CSc2nccc(=O)[nH]2)cc1 (stereo not given),inactive: 3.53%,–
Nc1ccccc1S(=O)(=O)NC1=NCCCCC1,inactive: 1.61%,–
Cc1ccc2nc(SCC(=O)N3CCC(Cc4ccccc4)CC3)nc(=O)n2c1,–,"inconclusive [inhibitor, partial curve, poor fit]"
CCCCOP(=O)(c1ccc(N(C)C)cc1)C(O)c1ccc(C(C)C)cc1 (stereo not given),–,"inconclusive [inhibitor, single point]"
O=C(NN1CCOCC1)c1cc(Cl)ccc1Cl,–,"inconclusive [inhibitor, single point]"
Cc1ccc(S(=O)(=O)N2CCCCC2C(=O)N2CCN(Cc3ccccc3)CC2)cc1 (stereo not given),–,"inconclusive [inhibitor, single point]"
O=C(Nc1cccc(-c2cnc3ccccc3n2)c1)c1ccco1,–,"inconclusive [inhibitor, single point]"
COc1cccc(CN2CCCN(S(=O)(=O)c3ccc(Br)cc3)CC2)c1,–,"inconclusive [inhibitor, partial curve, poor fit]"
Cc1ccc(OCCC(=O)OCC(=O)c2c(N)n(CC(C)C)c(=O)n(C)c2=O)cc1,–,"inconclusive [inhibitor, single point]"
c1ccc(OCc2ccc(CCCN3CCOCC3)cc2)cc1,–,inactive
O=C(NCC1CC1)c1onc(CSc2ccc(F)c(F)c2)c1C(=O)NCC1CC1,–,"inconclusive [inhibitor, single point]"
CCCCOc1ccc(S(=O)(=O)N2CCCCC2)cc1,inactive: 2.49%,–
Cc1cc(NC(=O)CCC(=O)N(Cc2ccco2)C(C(=O)NC2CCCCC2)c2cccs2)no1 (stereo not given),–,"inconclusive [inhibitor, partial curve, poor fit]"
COCCn1c(SCC(=O)Nc2nnc(C)s2)nnc1-c1c[nH]c2ccccc12,–,"inconclusive [inhibitor, single point]"
Cc1ccc(S(=O)(=O)Nc2ccsc2C#N)cc1,inactive: -19.7%,–
